Results from the supplement of paper PMC8728848.
This is one part of the list.

Tests used:
Assay in all cases: glycan array binding signal (z-score within array); higher = stronger binding
Settings in all cases: glycan notation: IUPAC condensed, linker removed
Gal(a1-4)GlcNAc = biological target: Gal(a1-4)GlcNAc
How it was run: (§1)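 Glycan array data were curated from 3228 arrays in the Consortium for Functional Glycomics database and kept only where the protein sequence was available. Glycan names were converted to IUPAC-condensed notation, and columns mapping to the same glycan were averaged. The binding signal is a within-array Z-score, averaged across arrays of the same protein sequence at different concentrations or buffers and across linkers. Negative Z-scores can be read as non-binding.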

Gal(a1-6)Glc = biological target: Gal(a1-6)Glc
How it was run: as §1

Gal(b1-2)Gal = biological target: Gal(b1-2)Gal
How it was run: as §1

Gal(b1-3)Gal = biological target: Gal(b1-3)Gal
How it was run: as §1

Gal(b1-3)GalNAc = biological target: Gal(b1-3)GalNAc
How it was run: as §1

[1] = biological target: Gal(b1-3)GalNAc(b1-3)Gal(a1-4)Gal(b1-4)Glc
How it was run: as §1

[2] = biological target: Gal(b1-3)GalNAc(b1-3)Gal(b1-4)Glc
How it was run: as §1

[3] = biological target: Gal(b1-3)GalNAc(b1-3)Gal(b1-4)GlcNAc
How it was run: as §1

[4] = biological target: Gal(b1-3)GalNAc(b1-4)Gal(b1-4)Glc
How it was run: as §1

[5] = biological target: Gal(b1-3)GalNAc(b1-4)[Neu5Ac(a2-3)]Gal(b1-4)Glc
How it was run: as §1

[6] = biological target: Gal(b1-3)[Fuc(a1-4)]GlcNAc
How it was run: as §1

[7] = biological target: Gal(b1-3)[Fuc(a1-4)]GlcNAc(b1-3)Gal(b1-4)GlcNAc
How it was run: as §1

[8] = biological target: Gal(b1-3)[Fuc(a1-4)]GlcNAc(b1-3)Gal(b1-4)[Fuc(a1-3)]GlcNAc
How it was run: as §1

[9] = biological target: Gal(b1-3)[GlcNAc(b1-6)]GalNAc
How it was run: as §1

[10] = biological target: Gal(b1-3)[GlcNAc(b1-6)]GlcNAc
How it was run: as §1

[11] = biological target: Gal(b1-3)[Neu5Ac(a2-6)]GalNAc
How it was run: as §1

[12] = biological target: Gal(b1-3)[Neu5Ac(a2-6)]GlcNAc
How it was run: as §1

[13] = biological target: Gal(b1-3)[Neu5Ac(a2-6)]GlcNAc(a1-4)Gal(b1-4)Glc
How it was run: as §1

[14] = biological target: Gal(b1-3)[Neu5Ac(b2-6)]GlcNAc
How it was run: as §1

[15] = biological target: Gal(b1-4)GalNAc(a1-3)[Fuc(a1-2)]Gal(b1-4)GlcNAc
How it was run: as §1

[16] = biological target: Gal(b1-4)GalNAc(b1-3)[Fuc(a1-2)]Gal(b1-4)GlcNAc
How it was run: as §1

Gal(b1-4)Glc = biological target: Gal(b1-4)Glc
How it was run: as §1

Gal(b1-4)Glc6S = biological target: Gal(b1-4)Glc6S
How it was run: as §1

Gal(b1-4)GlcNAc = biological target: Gal(b1-4)GlcNAc
How it was run: as §1

[17] = biological target: Gal(b1-4)GlcNAc(b1-2)Man(a1-3)[Gal(b1-4)GlcNAc(b1-2)Man(a1-6)]Man(b1-4)GlcNAc(b1-4)GlcNAc
How it was run: as §1

[18] = biological target: Gal(b1-4)GlcNAc(b1-3)Gal(b1-4)Glc
How it was run: as §1

[19] = biological target: Gal(b1-4)GlcNAc(b1-3)Gal(b1-4)GlcNAc
How it was run: as §1

[20] = biological target: Gal(b1-4)GlcNAc(b1-3)Gal(b1-4)GlcNAc(b1-3)Gal(b1-4)GlcNAc
How it was run: as §1

[21] = biological target: Gal(b1-4)GlcNAc(b1-3)Gal(b1-4)[Fuc(a1-3)]GlcNAc(b1-3)Gal(b1-4)[Fuc(a1-3)]GlcNAc
How it was run: as §1

[22] = biological target: Gal(b1-4)GlcNAc(b1-3)GalNAc
How it was run: as §1

[23] = biological target: Gal(b1-4)GlcNAc(b1-3)[Gal(b1-4)GlcNAc(b1-6)]GalNAc
How it was run: as §1

[24] = biological target: Gal(b1-4)GlcNAc(b1-6)GalNAc
How it was run: as §1

[25] = biological target: Gal(b1-4)GlcNAc(b1-6)[Gal(b1-3)]GalNAc
How it was run: as §1

[26] = biological target: Gal(b1-4)GlcNAc(b1-6)[Gal(b1-3)]GlcNAc
How it was run: as §1

Gal3S(b1-3)GalNAc = biological target: Gal3S(b1-3)GalNAc
How it was run: as §1

Gal3S(b1-3)GlcNAc = biological target: Gal3S(b1-3)GlcNAc
How it was run: as §1

[27] = biological target: Gal3S(b1-3)[Fuc(a1-4)]GlcNAc
How it was run: as §1

Gal3S(b1-4)Glc = biological target: Gal3S(b1-4)Glc
How it was run: as §1

Gal3S(b1-4)Glc6S = biological target: Gal3S(b1-4)Glc6S
How it was run: as §1

Gal3S(b1-4)GlcNAc = biological target: Gal3S(b1-4)GlcNAc
How it was run: as §1

Gal3S(b1-4)GlcNAc6S = biological target: Gal3S(b1-4)GlcNAc6S
How it was run: as §1

Gal3S6S(b1-4)GlcNAc = biological target: Gal3S6S(b1-4)GlcNAc
How it was run: as §1

Gal3S6S(b1-4)GlcNAc6S = biological target: Gal3S6S(b1-4)GlcNAc6S
How it was run: as §1

Gal4S(b1-4)GlcNAc = biological target: Gal4S(b1-4)GlcNAc
How it was run: as §1

Gal4S6S(b1-4)GlcNAc = biological target: Gal4S6S(b1-4)GlcNAc
How it was run: as §1

B1: TbCVNHOa (Tuber borchii), Q5MK11 (protein)
chain: GSHIGPYMSYADSSRNAVLTNGGRTLRAECRNADGNWVTSELDLDTCIGNPNGFLGWGMQNFSHSSEDIKLEEGGRKLTCRPKTVDGGFRERQGIDLNRIQNVNGRLVFQ
Gal(a1-4)GlcNAc
  glycan array binding signal (z-score): -0.262
Gal(a1-6)Glc
  glycan array binding signal (z-score): 0.445
Gal(b1-2)Gal
  glycan array binding signal (z-score): -0.085
Gal(b1-3)Gal
  glycan array binding signal (z-score): -0.259
Gal(b1-3)GalNAc
  glycan array binding signal (z-score): -0.261
[1]
  glycan array binding signal (z-score): -0.266
[2]
  glycan array binding signal (z-score): 5.6
[3]
  glycan array binding signal (z-score): -0.288
[4]
  glycan array binding signal (z-score): -0.271
[5]
  glycan array binding signal (z-score): -0.14
[6]
  glycan array binding signal (z-score): -0.238
[7]
  glycan array binding signal (z-score): -0.236
[8]
  glycan array binding signal (z-score): -0.246
[9]
  glycan array binding signal (z-score): -0.307
[10]
  glycan array binding signal (z-score): -0.274
[11]
  glycan array binding signal (z-score): -0.291
[12]
  glycan array binding signal (z-score): -0.266
[13]
  glycan array binding signal (z-score): 1.8
[14]
  glycan array binding signal (z-score): -0.275
[15]
  glycan array binding signal (z-score): -0.226
[16]
  glycan array binding signal (z-score): -0.277
Gal(b1-4)Glc
  glycan array binding signal (z-score): -0.264
Gal(b1-4)Glc6S
  glycan array binding signal (z-score): -0.236
Gal(b1-4)GlcNAc
  glycan array binding signal (z-score): -0.238
[17]
  glycan array binding signal (z-score): -0.282
[18]
  glycan array binding signal (z-score): 2.73
[19]
  glycan array binding signal (z-score): -0.288
[20]
  glycan array binding signal (z-score): -0.058
[21]
  glycan array binding signal (z-score): -0.219
[22]
  glycan array binding signal (z-score): -0.267
[23]
  glycan array binding signal (z-score): -0.276
[24]
  glycan array binding signal (z-score): -0.295
[25]
  glycan array binding signal (z-score): -0.229
[26]
  glycan array binding signal (z-score): -0.258
Gal3S(b1-3)GalNAc
  glycan array binding signal (z-score): -0.317
Gal3S(b1-3)GlcNAc
  glycan array binding signal (z-score): -0.261
[27]
  glycan array binding signal (z-score): -0.153
Gal3S(b1-4)Glc
  glycan array binding signal (z-score): -0.255
Gal3S(b1-4)Glc6S
  glycan array binding signal (z-score): -0.204
Gal3S(b1-4)GlcNAc
  glycan array binding signal (z-score): -0.26
Gal3S(b1-4)GlcNAc6S
  glycan array binding signal (z-score): -0.275
Gal3S6S(b1-4)GlcNAc
  glycan array binding signal (z-score): -0.229
Gal3S6S(b1-4)GlcNAc6S
  glycan array binding signal (z-score): -0.289
Gal4S(b1-4)GlcNAc
  glycan array binding signal (z-score): 0.003
Gal4S6S(b1-4)GlcNAc
  glycan array binding signal (z-score): -0.257
